# Experimental data: a collection of fitness landscapes (doi:10.1016/j.celrep.2020.107928)
# Whole data set: some 81,000 sequences, median “one-hybrid fitness for binding NBS DNA” near -0.1, cut for the highest 2% near 0.36. Some of the results follow.
# B1: Caulobacter ParB omega fusion; a variant is named by its letters at X, in order, B8GW30 (parent)
# chain: MESVVVGEPGMSEGRRGLGRGLSALLGEVDAAPAQAPGEQLGGSREAPIEILQRNPDQPRRTFREEDLEDLSNSIREKGVLQPILVRPSPDTAGEYQIVAGERAWRAAQRAGLKTVPIMVRELDDLAVLEIGIIENVQRADLNVLEEALSYKVLMEKFERTQENIAQTIGKSXSHVANXMRLLXLPDEVQSYLVSGELTAXHARAIAAAADPVALAKQIIEGGLSVRETEALARKAPNLSAGKSKGGRPPRVKDTDTQALESDLSSVLGLDVSIDHRGSTGTLTITYATLEQLDDLCNRLTRGI
# Variants of: B1
# Assay: one-hybrid fitness for binding NBS DNA (the Noc-binding site; scaled: cognate 1, non-cognate 0); higher = stronger binding
# Details: with NBS DNA site
# In short: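 Values were rescaled so that cognate is 1 and non-cognate is 0. Each is a fitness, the log change in a variant's read ratio to wild type from Illumina reads of plasmids before and after selection, with three replicate libraries pooled and variants under 10 reads dropped. Selection of the Caulobacter ParB libraries, four specificity codons randomised, used E. coli USO with a HIS3 reporter, site 19 bp from the promoter, on M9-minus-histidine with 0.1 mM IPTG and 5 mM 3-AT for 48 hours at 37°C.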
row,Variant,one-hybrid fitness for binding NBS DNA
1,LDQD,≤ 0.2
2,QKQA,0.34
3,SPSG,≤ 0.2
4,VRTM,≤ 0.2
5,WMSR,≤ 0.2
6,PGDH,≤ 0.2
7,RSVP,≤ 0.2
8,PESK,≤ 0.2
9,GHSM,≤ 0.2
10,DRPG,≤ 0.2
11,HTTH,≤ 0.2
12,GMWT,≤ 0.2
13,QQTN,≤ 0.2
14,HACS,≤ 0.2
15,GIAH,≤ 0.2
16,HHRG,≤ 0.2
17,CYTR,≤ 0.2
18,YPMY,≤ 0.2
19,LILQ,≤ 0.2
20,CPAF,≤ 0.2
21,SKQV,≤ 0.2
22,KHSF,≤ 0.2
23,PFPE,≤ 0.2
24,AGAW,≤ 0.2
25,DRYG,≤ 0.2
26,PEGT,≤ 0.2

row,Variant,one-hybrid fitness for binding NBS DNA
1,DLDA,≤ 0.2
2,LNTR,≤ 0.2
3,LGSW,≤ 0.2
4,CTHV,≤ 0.2
5,LMGC,≤ 0.2
6,EYVT,≤ 0.2
7,SNCG,≤ 0.2
8,NMTS,≤ 0.2
9,SPDK,≤ 0.2
10,STFW,≤ 0.2
11,HTNH,≤ 0.2
12,SYKS,≤ 0.2
13,GAKC,≤ 0.2
14,YNTD,≤ 0.2
15,AWDG,≤ 0.2
16,QCMG,≤ 0.2
17,QIRA,0.386
18,AYGM,≤ 0.2
19,NAQG,≤ 0.2
20,FQTH,≤ 0.2
21,PDRL,≤ 0.2
22,CNIV,≤ 0.2
23,PTMY,≤ 0.2
24,PLPM,≤ 0.2
25,NLCS,≤ 0.2
26,QKHV,≤ 0.2

row,Variant,one-hybrid fitness for binding NBS DNA
1,HLHD,≤ 0.2
2,VRCG,≤ 0.2
3,LSQC,≤ 0.2
4,ITVC,≤ 0.2
5,YLDR,≤ 0.2
6,LVAD,≤ 0.2
7,PGSS,≤ 0.2
8,VDYL,≤ 0.2
9,KDSL,≤ 0.2
10,PVPP,≤ 0.2
11,VGMC,≤ 0.2
12,ITHH,≤ 0.2
13,PPIR,≤ 0.2
14,LSNN,≤ 0.2
15,SYYP,≤ 0.2
16,CRCY,≤ 0.2
17,QFRG,≤ 0.2
18,QHAQ,≤ 0.2
19,YLTN,≤ 0.2
20,YSFS,≤ 0.2
21,EWSG,≤ 0.2
22,NMHF,≤ 0.2
23,EVRY,≤ 0.2
24,YTQL,≤ 0.2
